B1: CPEB3 Ribozyme (parent)
chain: UAACAGGGGGCCACAGCAGAAGCGUUCACGUCGCAGCCCCUGUCAGAUUCUGGUGAAUCUGCGAAUUCUGCUGUAUAUCUC

We go through 34 variants from the RNAGym collection of RNA variant scans (doi:10.1093/nar/gkz1192).

The source gives no read counts; variants with many changes may rest on few reads.

The variants in the series derive from B1. Description: self-cleavage, relative activity (ratio to wild type); higher = more cleavage; in vitro, sequencing. A digest of the protocol:
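For each CPEB3 ribozyme variant, relative activity is its cleaved/total read fraction divided by the unmutated ribozyme's. Barcoded error-prone PCR libraries were transcribed by T7 RNA polymerase (5 hours, 37°C) and held in DNase I for 15 min before an EDTA stop, with cleavage occurring throughout. Template-switching reverse transcription and Illumina sequencing were used to read the RNAs. A 5-read minimum applied, and results are the mean of three batches.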
Take UAACAGGUGGCCACAGCAGAAGCGUUCACGUCGCAGCCCCUGUCAGAUACUGGUGAAUCUGCGAAUUCUGCUGUAUAUCCC: the self-cleavage was determined as 0.17.

UAACAGGGAGCCUCAGCAGAAGCGUUCACGUCGCAGCUCCAGUCAGAUUCUGGUGAAUCAGCGAAUUCUGCCGUAUAUCUC: the self-cleavage is 0.04.

With UAACAGGGAGCCACCGCAGAAGCGUUCUCGUUGCAGCCCCUGUCAGAUCCUGGUGAAUCUGCGAAUUCGGCUGUAUAUCUC, the self-cleavage turned out to be 0.05.

As for UAACAGGUGGCCACAGCAGAAGCGUUCACGUCGCAGCCCCUGUCAGAUACUGGUGUAUCUGCGAAUUCUGCUGUAUAUCUC, the self-cleavage was 0.18.

As to UAACAGGUGGCCACAGCAGAAGCGUUCACGUCGCAGCCCCUGUCAGAUUCAGGUGAAUCUGCGAAUUCUGCAGUAUAUCUC, the self-cleavage turned out to be 0.07.

Take UAACAGGGAGCCGCAGCACAAGCGUUCUCGUCGCAGCCCCUGUCAGGUUCUGGUGAAUCUGCGAAUUCUGCUGGAUAUCUC: the self-cleavage turned out to be 0.36.

Take UAACAGGUGGCCACAGCAGAAGCGUUCACGUCGCAGCCCCUGUCAGAAUCUGGCGAAUCUGCGAAUUCUGCUGUAUAUCUC: the self-cleavage worked out at 0.11.

Regarding UAACAGGGAGCCCCAGCAGAGGCGUUCACGUCGCAGCCCCAGUCAGAUUCUGGUGUAUCUGCGAAUUCAGCUGUAUAUCUC, the self-cleavage worked out at 0.07.

With UAACAGGGAGCCUCAGCAGAAGCGCUCACGGCGCAGCCCCUGUCAGGUUCUGGUGGAUCUGCGAAUUCUGCUGUAUACCUC, the self-cleavage was found to be 0.03.

On to UAACAGGGAGCCGUAGCAGGAGCGUUCACGUCGCAGCCCCCGUCAGAUUCUGGUGAAUCUGCGAAUUCUGCUGUAUAUCUC, for which the self-cleavage was 0.41.

Regarding UAACAGGGAGCCUCAGCGGAAGCGUUCACGUCGCAGCCCCUGUCAGAUUCCGGUGAAUCUGCGAAUUCUGCUGUAUAUCUC, the self-cleavage is 0.07.

As to UAACAGGGAGCCGCAGCAGUGGCGUUCGCGCCGCAGCCCCUGUCAGAUUCUGGUGAAUCUGCGAAUUCUGCUGUAUAUCUC, the self-cleavage came to 0.3.

For UAACAGGUGGCCACAGCAGAAGCGUUCACGUCGCAGCCCCUGUCAGAUUCUGGUGAAUCUGCGAAGUCUGCUGCUUAUCCC, the self-cleavage worked out at 0.11.

For the variant UAACAGGGAGCCUCAGCAGAAGCGUCCACGUCGCAGCGCCUGUCAGAUUCUGGUGAAUCUGCGAAUUCUGCUGUAUAUCUC, the self-cleavage was found to be 0.05.

Regarding UAACAGGGAGCCGCAGCAGAAGCGUUCACGUCGCAGCCCCUGUCAGAUUCUGGUGAAUCUGCGAAUUCUGCUGUAAUUCUC, the self-cleavage was found to be 0.2.

As for UAACAGGGAGCCGCAGCAGAAGCGUUCACGUCGCAGCCCCUGUAAGAUUCUGGUGAAUCUGCGAAUUCUGCUGUAUAUCUC, the self-cleavage stood at 0.17.

Consider UAACAGGGAGCCGCAGCAGAAGCGUUCACGUCGCAGCCCCUGUCAGAUUCUGGUGAAUCCGCGAACUCUGCUGUAUAUCUC, for which the self-cleavage was 0.05.

UAACAGGUGGCCACAGCAGAAGCGUUCACGUCGCAGCCCCUGACAGAUUCAGGGGAAUCUGCGUAUUCUGCUGUAUAUCAC: the self-cleavage came to 0.03.

Regarding UAACAGGUGGCCACAGCAGAAGCGUUCACGUCGCAGCCCCUGUCAGAUUCUGGUGAACCUGCGAAUUCUGCUGUAUAUCGC, the self-cleavage was determined as 0.37.

As for UAACAGGGAGCCUCAGCAGAAGCGUUCACGUCGCAGCACCGGUCAGAUUCUGGUGAAUCUGCGAACUCUGCUGUAUAUCUC, the self-cleavage was 0.19.

With UAACAGGGAGCCUCAUCAGAAGCGUUCACGUCGCAGCCCCUGUCAGAUUCUGGUGAAUCUGCGAAUUCUGCUGUAUAUCUC, the self-cleavage is 0.28.

On to UAACAGGGAGCCGCAGCUGAAGCGUUCACGUCGUAGCCCCUGUCAGAUUCUGGUGAAUCUGCGAAUUCUGCUGUAUAUCUC, for which the self-cleavage is 0.06.

For the variant UAACAGGUGGCCACAGCAGAAGCGUUCACGUCGCAGCCCCUGACAGAUUCUGGUGAAUCUGCGAAUUCUGCUGUAUAUCCC, the self-cleavage is 0.23.

In the case of UAACAGGGAGCCGCAACAGAAGCGUUCACGUCGCAGCCCCUGUCAGAUUCGGGUGAAUCUGCGAAUUCUGCCGUAUAUCUC, the self-cleavage worked out at 0.06.

Regarding UAACAGGUGGCCACAGCAGAAGCGUUCACGUCGCAGCCCCUGCCAGAUUCUGGCGAAUCUGCGAAUUCCGCUGUAUAACUC, the self-cleavage came to 0.04.

As for UAACAGGUGGCCACAGCAGAAGCGUUCACGUCGCAGCCCCUGUCAGACUCUGGUGAAUCAGCGAAUUCUGCUGUAUAUCUC, the self-cleavage is 0.13.

For the variant UAACAGGUGGCCACAGCAGAAGCGUUCACGUCGCAGCCCCUGUCAGAUUCAGGUGAAUCUGCGAAUUCUGCUGAAUAUCUC, the self-cleavage was determined as 0.13.

As for UAACAGGUGGCCACAGCAGAAGCGUUCACGUCGCAGCCCCUGUCAGAUGCUGGUGAAUCUGCGAAUUCUGCUGGAUAUCUC, the self-cleavage amounted to 0.18.

With UAACAGGGAGCCGCAGCAGAAGCGUGCACGUCGCAGCCCCUGUCAGAUUCUGGUGAAUCGGCGAGUUCUGCUGUAUAUCUC, the self-cleavage came out at 0.21.

As for UAACAGGUGGCCACAGCAGAAGCGUUCACGUCGCAGCCCCUGUCAGAUACUGGUGAAUCUGCAAAUUCUGCUGCAUAUCUC, the self-cleavage was found to be 0.06.

In the case of UAACAGGGAGCCGCAGCAGAAGCGUUCACGUCGCAGCCACUGUCAGAUUCUGGUGACUCUGCGAAUUCUGCUGUAUAUCUC, the self-cleavage was determined as 0.07.

For UAACAGGUGGCCACAGCAGAAGCGUUCACGUCGCAGCCCCUGUCAGAUCCUGGUGAACCUGCGAAUUCUGCUGUAUAUCUC, the self-cleavage stood at 0.08.

On to UAACAGGUGGCCACAGCAGAAGCGUUCACGUCGCAGCCCCUGGCUGAUUCUGGUGGAUCUGCGAACUCUGCUGUAAAUCUC, for which the self-cleavage is 0.03.

As to UAACAGGUGGCCACAGCAGAAGCGUUCACGUCGCAGCCCCUGCCGGAUUCUGGUGAAUCUGCGAAUUCUGCUGUAUAUCUC, the self-cleavage was 0.13.
